Measurements: the supplement of paper PMC3334620
In all, about 33,000 sequences were measured (“E-score (-0.5 to 0.5)”: median about -0.035, highest 2% from about 0.34 on). The list shows a part of the results.

These sequences were tested against T1, Mot3 (UniProt P54785) (assay: PBM E-score (8-mer binding enrichment) (E-score (-0.5 to 0.5)); higher = stronger / more preferred TF binding; most listed sequences are background and not binding sites). Details: protein concentration: 200 nM; construct: GST-full length.
T1 sequence: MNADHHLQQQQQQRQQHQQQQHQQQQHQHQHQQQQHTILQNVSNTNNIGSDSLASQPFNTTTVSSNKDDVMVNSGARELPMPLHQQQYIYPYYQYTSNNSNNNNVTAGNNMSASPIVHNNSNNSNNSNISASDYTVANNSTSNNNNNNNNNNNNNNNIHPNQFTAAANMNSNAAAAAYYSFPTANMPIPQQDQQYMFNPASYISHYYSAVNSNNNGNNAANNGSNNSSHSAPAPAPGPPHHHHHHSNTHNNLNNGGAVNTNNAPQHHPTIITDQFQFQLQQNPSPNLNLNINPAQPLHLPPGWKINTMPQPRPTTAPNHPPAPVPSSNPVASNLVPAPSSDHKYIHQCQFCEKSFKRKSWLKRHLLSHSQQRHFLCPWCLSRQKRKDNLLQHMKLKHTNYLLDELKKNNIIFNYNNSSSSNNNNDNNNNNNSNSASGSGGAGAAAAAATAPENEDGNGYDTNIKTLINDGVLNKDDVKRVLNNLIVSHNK
In short: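 PURExpress in vitro transcription/translation supplied GST-tagged yeast transcription factors, either full-length or DNA-binding domain. Applied at about 100-200 nM to universal all-10-mer Agilent arrays double-stranded by primer extension, the bound protein was detected with fluorescent anti-GST. E-scores, modified Wilcoxon-Mann-Whitney statistics, were given by the Universal PBM Analysis Suite to ungapped eight-base words pooled with their reverse complements after masliner normalisation.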

First: GGCCTACC
Second: CTGACAAG
The “PBM E-score” value of the first is lower: -0.0921 for the first, 0.111 for the second.

Going from GGAACCCC to CTGTCAAG, the “PBM E-score” value falls from -0.0529 to -0.0561.

Compared with GCTTTACC, CCTCAAAA is lower in “PBM E-score” value: 0.214 for the first, -0.0394 for the second.

First: ACAAGTAG
Second: AACTCTAC
The “PBM E-score” value of the first is higher: 0.0555 for the first, -0.0496 for the second.

Compared with CAACCAAA, AGGGAGAA is lower in “PBM E-score” value: -0.0417 for the first, -0.141 for the second.

First: CCACTACA
Second: CCTCTTAA
The “PBM E-score” value of the first is higher: 0.127 for the first, 0.0272 for the second.

First: CATTGCTA
Second: AAGGTCTG
The “PBM E-score” value of the first is higher: 0.0475 for the first, -0.0775 for the second.

Going from ATTTCGCA to CCAATTCG, the “PBM E-score” value rises from 0.0809 to 0.0916.

Going from AGTAAGCC to CTCACATC, the “PBM E-score” value falls from -0.0435 to -0.0901.

Going from CCCAAAGG to AGATAAGC, the “PBM E-score” value rises from -0.0392 to -0.0282.

Going from CGTAAGTA to AGTAAAGC, the “PBM E-score” value falls from 0.165 to 0.0727.

First: TCCTTTCA
Second: CCTGAGAC
The “PBM E-score” value of the first is higher: 0.044 for the first, -0.0172 for the second.

First: ACGATCGG
Second: CGCCGTTC
The “PBM E-score” value of the first is lower: -0.0926 for the first, -0.0008 for the second.

Going from AGGGACCC to GAGCTACA, the “PBM E-score” value rises from -0.368 to 0.0235.

Going from CATATATA to AGACAATG, the “PBM E-score” value falls from 0.23 to 0.058.

Compared with AACAGGAC, AACCGCCG is lower in “PBM E-score” value: 0.19 for the first, -0.0916 for the second.

Going from AACCGTTA to GACCCATA, the “PBM E-score” value falls from 0.0683 to -0.107.

Going from GATAATGA to AAATGCGC, the “PBM E-score” value rises from -0.0692 to 0.0418.

Compared with GTGCAATA, CATCGTAA is higher in “PBM E-score” value: 0.161 for the first, 0.175 for the second.

First: ACTCTATA
Second: GGTCATCA
The “PBM E-score” value of the first is higher: 0.036 for the first, -0.158 for the second.

First: ACTCACGC
Second: AGGTGTCC
The “PBM E-score” value of the first is lower: -0.0749 for the first, 0.173 for the second.

Going from AAGAAAGT to CAAGTTCG, the “PBM E-score” value rises from 0.0197 to 0.0704.

First: AGAGATCA
Second: CTGTAATC
The “PBM E-score” value of the first is lower: -0.211 for the first, 0.111 for the second.

First: ATCGAAAT
Second: ACGGAACT
The “PBM E-score” value of the first is higher: -0.0873 for the first, -0.186 for the second.

Going from CAAGATGA to TAACGGGA, the “PBM E-score” value falls from 0.0463 to -0.0233.

Compared with ACCCAAGG, TATCAGCA is lower in “PBM E-score” value: 7e-05 for the first, -0.0377 for the second.

Compared with ATCGACTA, CGGACGAC is lower in “PBM E-score” value: -0.0691 for the first, -0.152 for the second.

Going from ATATGTAA to ATAATGGG, the “PBM E-score” value falls from 0.346 to -0.105.

First: CAAGATAA
Second: AGACCAGC
The “PBM E-score” value of the first is higher: 0.128 for the first, -0.28 for the second.

Compared with ACTCCGTA, ACGGTTCC is higher in “PBM E-score” value: -0.323 for the first, 0.0364 for the second.

Going from GACCGCAC to TGGCACCA, the “PBM E-score” value rises from -0.238 to 0.044.

First: CTTATCGC
Second: AGCGCGAT
The “PBM E-score” value of the first is lower: -0.156 for the first, -0.0166 for the second.

Compared with ATTGTGGG, GCAGTCCA is lower in “PBM E-score” value: -0.142 for the first, -0.197 for the second.

Compared with ATCTGGGC, ATTCTGCA is higher in “PBM E-score” value: -0.253 for the first, -0.0758 for the second.

Going from GCTCCGAC to ACCTAAAG, the “PBM E-score” value rises from -0.0792 to 0.027.

First: GTCAAGAC
Second: CCAAACCG
The “PBM E-score” value of the first is higher: -0.0412 for the first, -0.218 for the second.

First: ATGCGCCA
Second: AGACGTTC
The “PBM E-score” value of the first is lower: -0.028 for the first, -0.008 for the second.

Going from CATGGTTC to ATTGAGGC, the “PBM E-score” value falls from 0.101 to 0.0776.

Compared with CTTGTGAC, CCATACCA is lower in “PBM E-score” value: -0.0252 for the first, -0.07 for the second.

First: ATGGACCG
Second: ACGCACCT
The “PBM E-score” value of the first is lower: -0.129 for the first, 0.129 for the second.

Going from AATATGGA to ATACAGCC, the “PBM E-score” value falls from 0.0185 to -0.0474.

Going from CACCCCGC to ACTTGGCC, the “PBM E-score” value rises from -0.277 to -0.213.

First: GGTCTTAC
Second: CAGGTTCC
The “PBM E-score” value of the first is lower: -0.136 for the first, 0.271 for the second.

Compared with AGCTCAGA, CCGCTTGC is lower in “PBM E-score” value: -0.181 for the first, -0.193 for the second.

Going from AACTGGAA to CGCCTTCA, the “PBM E-score” value rises from -0.043 to 0.109.

Going from GAGGAACC to AGTGTGTG, the “PBM E-score” value falls from 0.255 to 0.051.

Compared with CATCAATC, CTTTCTAC is higher in “PBM E-score” value: -0.0534 for the first, 0.182 for the second.

First: CAGTGCGG
Second: CACTCAAA
The “PBM E-score” value of the first is lower: -0.235 for the first, 0.107 for the second.

Compared with CGGGCAGA, AGAAGACG is lower in “PBM E-score” value: -0.00558 for the first, -0.0931 for the second.

First: GAACAACA
Second: ATTACATA
The “PBM E-score” value of the first is lower: 0.236 for the first, 0.406 for the second.

Compared with AGATTACT, CTAAACTC is lower in “PBM E-score” value: 0.101 for the first, 0.0609 for the second.

Going from TCATTACA to AGATACCT, the “PBM E-score” value falls from 0.359 to -0.096.

First: CTAGAAAG
Second: GCGGTGTA
The “PBM E-score” value of the first is lower: -0.108 for the first, 0.162 for the second.

Going from AACGTGTA to AAAGACGG, the “PBM E-score” value falls from 0.415 to -0.233.

Going from CGACTTTA to TGAATGAA, the “PBM E-score” value falls from 0.101 to 0.0868.
